Screen size: about 310,000 compounds; about 14,000 (4.5%) showed an effect of 50% or more. The effect is printed as a negative number. This is one part of the list.
molecular target: human ether-à-go-go-related gene (hERG) potassium channel (human, UniProt Q12809); assay: primary screen, population patch clamp on CHO cells stably expressing hERG
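Note: peak tail current of the secondary pulse compared with the same well before compound.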

human ether-à-go-go-related gene (hERG) potassium channel, sequence (Q12809 whole entry, looked up): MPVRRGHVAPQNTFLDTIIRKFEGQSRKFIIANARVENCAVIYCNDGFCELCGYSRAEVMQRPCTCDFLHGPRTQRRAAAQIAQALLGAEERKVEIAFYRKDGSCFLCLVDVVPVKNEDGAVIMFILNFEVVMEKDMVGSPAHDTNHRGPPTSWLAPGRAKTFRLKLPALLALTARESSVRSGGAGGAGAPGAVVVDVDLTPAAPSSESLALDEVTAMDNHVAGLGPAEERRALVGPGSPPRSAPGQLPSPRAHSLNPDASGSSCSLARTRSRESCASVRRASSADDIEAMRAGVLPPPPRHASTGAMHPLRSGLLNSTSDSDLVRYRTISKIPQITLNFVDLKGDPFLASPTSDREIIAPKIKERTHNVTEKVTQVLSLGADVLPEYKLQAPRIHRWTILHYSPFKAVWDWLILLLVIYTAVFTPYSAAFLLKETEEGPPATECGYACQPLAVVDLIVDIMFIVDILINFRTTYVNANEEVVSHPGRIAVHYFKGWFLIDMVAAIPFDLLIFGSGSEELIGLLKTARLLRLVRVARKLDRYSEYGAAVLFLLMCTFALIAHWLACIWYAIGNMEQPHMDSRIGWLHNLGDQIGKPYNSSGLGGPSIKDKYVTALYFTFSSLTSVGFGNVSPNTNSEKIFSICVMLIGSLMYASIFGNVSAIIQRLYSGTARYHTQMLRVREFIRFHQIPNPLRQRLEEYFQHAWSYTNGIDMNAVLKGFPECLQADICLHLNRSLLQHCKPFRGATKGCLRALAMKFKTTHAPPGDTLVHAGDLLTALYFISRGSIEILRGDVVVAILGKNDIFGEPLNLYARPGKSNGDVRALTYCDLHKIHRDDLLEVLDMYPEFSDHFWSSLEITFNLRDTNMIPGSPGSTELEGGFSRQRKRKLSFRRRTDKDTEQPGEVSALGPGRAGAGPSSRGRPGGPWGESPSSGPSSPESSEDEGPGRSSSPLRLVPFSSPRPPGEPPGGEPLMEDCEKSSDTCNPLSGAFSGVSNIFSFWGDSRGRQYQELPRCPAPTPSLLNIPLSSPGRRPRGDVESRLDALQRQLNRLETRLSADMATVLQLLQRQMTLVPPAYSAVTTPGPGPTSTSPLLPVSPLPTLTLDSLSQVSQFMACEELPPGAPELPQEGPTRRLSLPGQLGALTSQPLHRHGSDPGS

Row | SMILES | hERG current change (%, negative = inhibition) at 10uM
1 | CCCCCc1n[nH]c2c1CCCC2 | 15.6%
2 | c1ccc2c(Oc3ccc4c(c3)OCO4)nncc2c1 | 5.15%
3 | CCCCC/C=C/C1=CC(=O)C[C@H](c2ccc(Cl)cc2)C1 | -47.4%
4 | Cc1oc(-c2ccccc2Cl)nc1CSCC(=O)NC1CCCC1 | -25.1%
5 | CC(C)Cn1cnc2c1c(=O)n(CC(=O)N(C)C)c(=O)n2Cc1ccccc1 | 8.95%
6 | Cc1cc(C)c([N+](=O)[O-])cc1NC(=O)CCSc1ccccc1Cl | 6.59%
7 | CCc1ccc(-c2csc(NC(=O)COC(=O)CCc3nc4ccccc4s3)n2)cc1 | 6.31%
8 | CC1(NC(=O)Cn2cc(C(F)(F)F)ccc2=O)CCS(=O)(=O)C1 (stereo not shown) | -5.69%
9 | CC1CCCCN1Cc1cnc(Cl)s1 (stereo not shown) | 0.546%
10 | Cc1nc(-c2cccc(NC(=O)c3ccc(Br)o3)c2)cs1 | -31.3%
11 | Cc1onc(-c2ccccc2Cl)c1C(=O)N1CCN(c2ccccc2)CC1 | -6.55%
12 | Cc1cccc(-c2noc(CNS(=O)(=O)c3ccccc3)n2)c1 | 5.25%
13 | COc1cc(OC)cc(C(=O)NCCN2C(=O)S/C(=C\c3cccs3)C2=O)c1 | -0.617%
14 | CCCCc1c(C)[nH]c(C(=O)OCC)c1C | 8.51%
15 | Cn1cc(CCCC(=O)NCc2ccc(F)cc2)c2ccccc21 | -10.4%
16 | O=C(NC1CCN(C(=S)Nc2ccc(Cl)cc2)CC1)C1CCCCC1 | 17.5%
17 | CN(C)C(=O)COc1ccc(C(=O)/C=C/c2cccnc2)cc1 | 18.1%
18 | Cc1c(C)n2c(SCC(=O)N3CCCCC3)nnc2[nH]c1=O | 9.92%
19 | COC(=O)CNC(=O)c1ccc(=O)oc1 | 16.1%
20 | COc1cc(OC)cc(-c2cc3nc4c(c(N5CCN(c6ncccn6)CC5)n3n2)CCCC4)c1 | 4.89%
21 | O=[N+]([O-])c1ccc(-c2cn3c(n2)CCC3)cc1 | -17.5%
22 | O=C1NC2(CCCCC2)C(=O)N1Cc1cc(=O)n2ccsc2n1 | 17.1%

Row | SMILES | hERG current change (%, negative = inhibition) at 10uM
23 | O=C(O)c1ccc(CSc2ncnc3c2cnn3Cc2ccccc2)cc1 | 2.67%
24 | COc1ccccc1OCc1csc(NC(=O)c2ccco2)n1 | -21.7%
25 | Cc1nc(=O)c(-c2ccccc2)c(C)n1CCCO | 6.73%
26 | COc1ccc(CNC(=O)Cn2c(=O)oc3ccccc32)cc1OC | -25.1%
27 | Cc1cc(C)n2nc(CNS(=O)(=O)c3ccc(F)c(C)c3)nc2n1 | -1.63%
28 | COc1ccc(CCNS(=O)(=O)c2ccc(OC)c(OC)c2)cc1OC | 1.32%
29 | COc1ccc(S(=O)(=O)N2CCOC2CNC(=O)C(=O)NCCCN(C)C)cc1C (stereo not shown) | -10.3%
30 | Cc1ccc(C2=NC3(CCCC3)NC2=S)cc1 | 7.59%
31 | CC(C)C(Nc1ccc(C(F)(F)F)cc1[N+](=O)[O-])C(=O)O (stereo not shown) | 27.5%
32 | C=CCNC(=O)C1CC1(c1ccc(C)cc1)c1ccc(C)cc1 (stereo not shown) | -21.6%
33 | CCN1CCN(Cc2ccc(NC(=O)c3cc(NC(=O)c4ccc5n[nH]nc5c4)cc(OC)c3)cc2C(F)(F)F)CC1 | 21.1%
34 | CSCCC(NC(=O)c1cc([N+](=O)[O-])cc([N+](=O)[O-])c1)c1nc2ccccc2[nH]1 (stereo not shown) | -35%
35 | Cc1ccc(/C=N/N2C(=O)C3C(C2=O)C2C=CC3C23CC3)o1 (stereo not shown) | -2.72%
36 | O=C(NCc1ccccn1)c1cc(S(=O)(=O)N2CCCCC2)ccc1Cl | 3.78%
37 | CC(Oc1ccccc1)C(=O)Nc1ccccc1F (stereo not shown) | -14.1%
38 | CN(C)CCNC(C(=O)Nc1cc(Cl)cc(Cl)c1)c1ccccc1 (stereo not shown) | -45.6%
39 | O=C(N/C(=C/c1ccco1)C(=O)N1CCCCCC1)c1cccs1 | -18.3%
40 | O=C1CCCN1CCCNC(=S)Nc1ccc(Br)cc1Cl | -2.97%
41 | O=C(CN1CCN(S(=O)(=O)c2cccc(F)c2)CC1)Nc1ccnn1C1CCCC1 | -13.6%
42 | CN(C)C(=O)CN(C)S(=O)(=O)c1ccc(Cl)cc1 | -3.59%
43 | COc1ccc(NC(=O)N2CCN(S(C)(=O)=O)CC2)c(OC)c1 | 6.39%
44 | CCC(=O)NC(=S)Nc1ccc(NC(=O)c2ccc(Br)o2)cc1 | 3.82%

Row | SMILES | hERG current change (%, negative = inhibition) at 10uM
45 | c1ccc(C(c2nnnn2C2CCCC2)N2CCN(c3nc4ccccc4s3)CC2)cc1 (stereo not shown) | -3.46%
46 | O=C(CN1CCN(S(=O)(=O)c2ccc(Br)cc2)CC1)N/N=C/c1ccncc1 | -70.6%
47 | CCCOC(=O)Nc1cc(OC)c(Cl)cc1OC | -6.7%
48 | Cc1ccc(C2=NOC3(CC(=O)N(c4ccc(C)cc4)C3=O)C2)cc1 (stereo not shown) | 21.4%
49 | COc1ccccc1C(=O)C1CCCN(Cc2ccc3c(c2)OCCO3)C1 (stereo not shown) | -40.5%
50 | O=C(Nc1ccccn1)c1cccc(S(=O)(=O)N2CCCc3ccccc32)c1 | -16.8%
51 | Cc1cccnc1NC(=O)CSc1nnc(Cc2ccccc2)o1 | 1.66%
52 | CCN(CC)S(=O)(=O)c1ccc2oc(C(=O)NCc3ccc(C)cc3)c(C)c2c1 | -13.9%
53 | CSc1ccc(/C=C(\NC(=O)c2ccccc2)C(=O)NCCN2CCOCC2)cc1 | -63.7%
54 | CCCCc1c(O)n2c(nc3ccccc32)[nH]c1=O | 13.8%
55 | CCOC(=O)CNc1nc(Cl)nc(Nc2ccc(Cl)cc2)n1 | 15%
56 | CCOC(=O)/C(C(N)=NC(C)C)=C(\O)c1ccccc1 | -1.58%
57 | CCn1c(CSc2nc3ccccc3s2)nnc1SCC(=O)c1ccc(Cl)cc1 | 6.76%
58 | Cc1ccn(CC(=O)N2CCCC(N3CCN(c4cccc(Cl)c4)CC3)C2)n1 (stereo not shown) | -33.6%
59 | COC(=O)[C@@H](Cc1ccc(O)cc1)NC(=O)[C@H]1CCC(=O)N1C(=O)OCc1ccccc1 | -8.27%
60 | C=CCN(c1cccc(C(F)(F)F)c1)S(=O)(=O)c1cccc(C(=O)OCC(=O)NCCC)c1 | -39.2%
61 | CC(=O)Nc1ccccc1Sc1ccc2c3c(cccc13)C(=O)N(c1ccc(C)cc1)C2=O | 2.01%
62 | CC1CCCCN1CCCNC(=O)c1cc(Br)c(Br)[nH]1 (stereo not shown) | -64.9%
63 | CO/N=C/C(C#N)=C/c1ccc(OC)cc1 | 20.6%
64 | Cc1cc(OCC(=O)N(Cc2ccco2)C2CCS(=O)(=O)C2)cc(C)c1Cl (stereo not shown) | -43.6%
65 | CCCCNC(=O)Cn1cnc2sc(C)c(S(=O)(=O)N3CCN(c4ccccc4OC)CC3)c2c1=O | 11.4%
66 | O=C(c1ccccc1F)N(Cc1ccc2c(c1)OCO2)Cc1cc2cc3c(cc2n2nnnc12)OCO3 | -13%

Row | SMILES | hERG current change (%, negative = inhibition) at 10uM
67 | O=C(Nc1ccccc1C(=O)N1CCNCC1)c1ccco1 | 4.65%
68 | Cc1nc(N2CCN(c3ccccn3)CC2)c2c(C)c(C(=O)Nc3c(F)cc(F)cc3Br)sc2n1 | -14.4%
69 | Cc1nn(Cc2ccccc2)c2c1C(c1ccco1)C(C#N)=C(N)O2 (stereo not shown) | 8.66%
70 | O=C1CCC(C(=O)N2CCOCC2)CN1Cc1cccc(C(F)(F)F)c1 (stereo not shown) | -3.9%
71 | CN(Cc1c(C(=O)N2CCc3ccccc3C2)nc2ccc(Cl)cn12)C(C1CC1)C1CC1 | -45.9%
72 | COc1ccc(CNC(=O)C2(CC3CC(c4ccccc4)=NO3)CCN(C(=O)Cc3ccc(F)cc3)CC2)cc1 (stereo not shown) | 18.1%
73 | CN1CCCN(S(=O)(=O)c2ccccc2)CC1.Cl | -0.989%
74 | Cn1cccc1/C=C1\CCc2ccccc2C1=O | 11.8%
75 | CC1CN(c2ccccc2)CCN1C(=O)c1cc(COc2c(F)cccc2F)on1 (stereo not shown) | -1.15%
76 | COc1ccc(NC(=O)c2ccc(NCC3CCCO3)c([N+](=O)[O-])c2)cc1 (stereo not shown) | -5.12%
77 | Cc1cccc(C(=O)N[C@H](C(=O)OCc2cc(=O)n3c(n2)sc2ccccc23)C(C)C)c1 | -21.7%
78 | COc1ccccc1NS(=O)(=O)c1cc(NC(=O)c2sccc2C)ccc1N1CCCC1 | 14.9%
79 | O=S(=O)(c1ccc2ccccc2c1)n1cccn1 | 14.1%
80 | Cc1ccsc1CNn1cnnc1SCc1ccc(Cl)cc1 | 13%
81 | O=C(COc1ccc2ccccc2c1)N1CCN(C(=O)c2cccs2)CC1 | -50%
82 | COc1cccc(NC(=O)CN(C)CC(=O)NCc2ccco2)c1 | 2.65%
83 | CCN1CCCC1CNC(=O)c1ccc(Sc2ccc(F)cc2)c([N+](=O)[O-])c1 (stereo not shown) | -66.5%
84 | CC(C)(C)OC(=O)N1CCC[C@H]1c1nnc(SCc2cccc(Cl)c2)o1 | -15.1%
85 | COc1ccc(COc2cc(-c3cccc(OC)c3)nc3ccc(NC(=O)c4ccc(OC)cc4)cc23)cc1 | 10.9%
86 | CCc1c(C)c2c(C)nn(-c3ccccc3)c2[nH]c1=O | 1.37%
87 | CCOc1cc(C(=O)N(C)CC(=O)Nc2cccc3ccccc23)ccc1OC | 5.74%
88 | COc1ccccc1S(=O)(=O)CC(O)COc1ccccc1Cl (stereo not shown) | 11.8%

From article PMC4336329 (PLoS ONE, 2015)
